Measured values as given in article PMC13083723 (Patterns, 2026).
Screen size: about 5,400 compounds; about 190 (3.5%) showed an effect of 50% or more. This is one part of the list.

Tested on: Vero-E6
Assay: primary screen, phospholipidosis by LipidTOX staining; higher = more effect of the substance
Settings: 10 µM
In short: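 Drug-induced phospholipidosis detected with HCS LipidTOX Red reagent in Vero-E6 cells. Compounds tested at 10 μM, with amiodarone (10 μM) as positive control and DMSO (0.1 v/v %) as vehicle.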

Row | SMILES | result_ITMP
1 | O=c1[nH]c([C@@H]2CCCN2)nc2c1oc1ccc(Cl)cc12 | 0.31%
2 | CN1CCN(c2ccc(C(=O)Nc3n[nH]c4ccc(Cc5cc(F)cc(F)c5)cc34)c(NC3CCOCC3)c2)CC1 | 96.5%
3 | Clc1ccc2c(NCCNc3ccnc4cc(Cl)ccc34)ccnc2c1 | -2.87%
4 | CCc1c(C(=O)NCCc2ccc(N3CCCCC3)cc2)[nH]c2ccc(Cl)cc12 | -1.78%
5 | Oc1ccc(C(O)CNCCCCCCNCC(O)c2ccc(O)c(O)c2)cc1O (stereo not drawn) | 0.03%
6 | C[C@H](CCC(=O)O)[C@H]1CC[C@H]2[C@@H]3CC[C@@H]4C[C@H](O)CC[C@]4(C)[C@H]3C[C@H](O)[C@]12C | 0.11%
7 | Nc1ncnc2c1ncn2[C@@H]1O[C@H](C[C@@H](N)CC[C@H](N)C(=O)O)[C@@H](O)[C@H]1O | -2.59%
8 | COc1ccccc1NC(=O)OCC1CCN(C(=O)OC(C)(C)C)CC1 | -3.83%
9 | S=P(N1CC1)(N1CC1)N1CC1 | -8.28%
10 | COc1cc(N)c(Cl)cc1C(=O)NC1CCN(Cc2ccccc2)CC1 | 18.4%
11 | COc1ccsc1CNCC[C@@]1(c2ccccn2)CCOC2(CCCC2)C1 | -2.63%
12 | CC(=O)OCC1=C(C(=O)[O-])N2C(=O)[C@@H](NC(=O)CSc3ccncc3)[C@H]2SC1 | -1.36%
13 | CC12CCC(C(=O)N(CCCCN3CCN(c4ccccn4)CC3)C1=O)C2(C)C (stereo not drawn) | -4.12%
14 | CC(=O)c1ccc2c(c1)[C@@H]1C=CC[C@@H]1[C@H](c1cc3c(cc1Br)OCO3)N2 | 14.3%
15 | c1cnc(NCc2ccc(CNc3ncccn3)cc2)nc1 | 0.01%
16 | CNC(=O)CN1CCC(Oc2cc3c(Nc4cccc(Cl)c4F)ncnc3cc2OC)CC1 | 27.2%
17 | Cc1cn(C[C@H](N)C(=O)O)c(=O)n(Cc2ccsc2C(=O)O)c1=O | -2.31%
18 | CCN(CC)C(=O)N[C@H]1C[C@@H]2c3cccc4[nH]cc(c34)C[C@H]2N(C)C1 | 2.65%
19 | CCN1CCCC1CNC(=O)c1cc(S(=O)(=O)CC)c(N)cc1OC (stereo not drawn) | -1.95%
20 | Nc1nc(N)nc(-c2cc(Cl)ccc2Cl)n1 | -2%
21 | CCCS(=O)(=O)Nc1ccc(F)c(C(=O)c2c[nH]c3ncc(Cl)cc23)c1F | 2.11%
22 | Cc1c(N(C)CS(=O)(=O)[O-])c(=O)n(-c2ccccc2)n1C | -4.64%
23 | Cc1ccc(NC(=O)Nc2cc(C(F)(F)F)ccc2F)cc1Nc1ccc2c(c1)NC(=O)/C2=C\c1ccc[nH]1 | -8.35%
24 | CC(C)(NS(=O)(=O)c1ccc(Oc2ccc(F)cc2)cc1)C(=O)NO | -0.94%
